Measurements from paper PMC5986797, “Laminin heparin-binding peptides bind to several growth factors and enhance diabetic wound healing” (Nature Communications, 2018).
These are yes or no findings as the source states them, for the method shown. Some binding calls cover weakened binding; strength is not graded here.

Protein sequences, listed by entry. Tags and fused reporters are not part of them. Lines headed by an entry give the natural chain unless they say otherwise; changes in a name come on top. Residues count along the entry.
UniProt P24043: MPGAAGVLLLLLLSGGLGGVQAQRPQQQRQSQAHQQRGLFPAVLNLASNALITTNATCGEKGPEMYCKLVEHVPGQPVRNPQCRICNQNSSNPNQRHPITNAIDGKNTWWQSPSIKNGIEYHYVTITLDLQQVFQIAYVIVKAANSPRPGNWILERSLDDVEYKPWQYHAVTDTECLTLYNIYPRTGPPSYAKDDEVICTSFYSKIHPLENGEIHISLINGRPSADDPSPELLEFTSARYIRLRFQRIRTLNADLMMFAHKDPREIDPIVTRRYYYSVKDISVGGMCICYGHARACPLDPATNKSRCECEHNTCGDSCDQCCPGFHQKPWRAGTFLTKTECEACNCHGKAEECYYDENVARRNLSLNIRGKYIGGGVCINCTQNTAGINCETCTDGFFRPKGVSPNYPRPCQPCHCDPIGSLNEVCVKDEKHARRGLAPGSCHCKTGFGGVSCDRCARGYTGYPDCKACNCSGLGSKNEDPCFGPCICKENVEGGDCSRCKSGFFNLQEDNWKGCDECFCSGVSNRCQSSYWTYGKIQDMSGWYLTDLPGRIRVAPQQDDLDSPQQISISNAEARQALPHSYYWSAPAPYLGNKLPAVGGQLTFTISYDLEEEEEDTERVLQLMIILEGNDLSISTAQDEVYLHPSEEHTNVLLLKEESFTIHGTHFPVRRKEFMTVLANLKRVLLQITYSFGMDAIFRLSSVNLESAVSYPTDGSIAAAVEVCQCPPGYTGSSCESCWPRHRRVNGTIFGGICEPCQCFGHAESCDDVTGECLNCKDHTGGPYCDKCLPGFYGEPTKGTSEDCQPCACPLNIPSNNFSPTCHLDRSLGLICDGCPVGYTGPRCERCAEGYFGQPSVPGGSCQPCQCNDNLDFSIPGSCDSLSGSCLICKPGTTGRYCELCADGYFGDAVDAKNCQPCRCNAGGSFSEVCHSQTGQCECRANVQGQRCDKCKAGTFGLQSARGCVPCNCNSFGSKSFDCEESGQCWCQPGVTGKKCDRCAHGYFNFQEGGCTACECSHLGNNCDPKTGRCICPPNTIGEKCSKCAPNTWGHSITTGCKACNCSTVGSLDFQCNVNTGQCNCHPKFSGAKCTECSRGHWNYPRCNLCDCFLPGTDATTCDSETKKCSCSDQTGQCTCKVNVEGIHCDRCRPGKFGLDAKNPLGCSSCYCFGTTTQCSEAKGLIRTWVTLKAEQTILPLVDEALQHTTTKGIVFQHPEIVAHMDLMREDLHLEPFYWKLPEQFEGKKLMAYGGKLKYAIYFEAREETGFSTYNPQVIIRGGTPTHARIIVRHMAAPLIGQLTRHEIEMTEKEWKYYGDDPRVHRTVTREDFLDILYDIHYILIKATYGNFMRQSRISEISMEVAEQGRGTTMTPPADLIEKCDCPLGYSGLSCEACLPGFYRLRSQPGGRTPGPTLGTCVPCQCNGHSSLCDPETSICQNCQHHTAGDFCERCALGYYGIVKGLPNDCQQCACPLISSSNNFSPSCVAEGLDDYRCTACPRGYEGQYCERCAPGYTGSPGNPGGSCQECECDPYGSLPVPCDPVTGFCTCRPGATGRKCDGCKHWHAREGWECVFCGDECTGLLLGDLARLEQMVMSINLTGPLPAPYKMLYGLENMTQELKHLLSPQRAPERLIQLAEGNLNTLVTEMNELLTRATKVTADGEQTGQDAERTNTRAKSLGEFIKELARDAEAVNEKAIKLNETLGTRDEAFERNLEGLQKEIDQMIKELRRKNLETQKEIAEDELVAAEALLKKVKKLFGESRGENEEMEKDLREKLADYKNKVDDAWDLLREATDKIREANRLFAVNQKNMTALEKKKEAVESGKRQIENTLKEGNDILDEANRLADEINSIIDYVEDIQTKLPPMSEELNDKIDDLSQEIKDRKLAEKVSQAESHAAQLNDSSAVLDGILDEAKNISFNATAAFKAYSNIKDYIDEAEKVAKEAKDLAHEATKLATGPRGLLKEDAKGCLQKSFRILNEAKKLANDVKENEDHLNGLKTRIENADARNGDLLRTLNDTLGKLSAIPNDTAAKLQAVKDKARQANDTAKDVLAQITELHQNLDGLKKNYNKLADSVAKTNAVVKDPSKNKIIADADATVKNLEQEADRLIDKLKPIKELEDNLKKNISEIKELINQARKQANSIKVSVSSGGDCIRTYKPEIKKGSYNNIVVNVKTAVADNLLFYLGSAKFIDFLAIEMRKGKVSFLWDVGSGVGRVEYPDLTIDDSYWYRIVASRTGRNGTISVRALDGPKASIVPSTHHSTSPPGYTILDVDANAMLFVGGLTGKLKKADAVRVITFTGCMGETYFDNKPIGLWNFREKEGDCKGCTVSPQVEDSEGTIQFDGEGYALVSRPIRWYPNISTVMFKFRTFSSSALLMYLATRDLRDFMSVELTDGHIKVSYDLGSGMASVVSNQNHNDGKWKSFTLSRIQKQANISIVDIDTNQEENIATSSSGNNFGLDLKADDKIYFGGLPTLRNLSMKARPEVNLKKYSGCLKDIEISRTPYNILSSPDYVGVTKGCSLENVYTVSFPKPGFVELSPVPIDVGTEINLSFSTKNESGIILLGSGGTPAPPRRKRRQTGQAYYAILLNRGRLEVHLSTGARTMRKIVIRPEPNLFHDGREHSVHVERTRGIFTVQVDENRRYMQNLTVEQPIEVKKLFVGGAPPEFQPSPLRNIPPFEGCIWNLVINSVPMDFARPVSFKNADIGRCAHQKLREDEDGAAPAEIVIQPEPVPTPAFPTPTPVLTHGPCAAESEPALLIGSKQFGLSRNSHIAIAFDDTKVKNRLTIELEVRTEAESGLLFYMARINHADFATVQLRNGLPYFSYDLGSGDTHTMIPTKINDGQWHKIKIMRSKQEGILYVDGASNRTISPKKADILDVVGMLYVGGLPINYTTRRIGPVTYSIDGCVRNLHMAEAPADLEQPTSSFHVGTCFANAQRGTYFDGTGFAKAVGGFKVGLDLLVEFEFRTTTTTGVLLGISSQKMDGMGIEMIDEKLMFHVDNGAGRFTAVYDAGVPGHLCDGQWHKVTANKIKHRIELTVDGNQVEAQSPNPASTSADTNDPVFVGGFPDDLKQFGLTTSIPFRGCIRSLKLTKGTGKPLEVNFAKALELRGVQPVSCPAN
laminin peptide LAMA4_(1408–1434) (Q16363, residues 1408-1434): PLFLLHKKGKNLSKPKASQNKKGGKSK
laminin peptide LAMA4_(1521–1543) (Q16363, residues 1521-1543): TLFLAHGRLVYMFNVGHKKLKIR
UniProt P11047: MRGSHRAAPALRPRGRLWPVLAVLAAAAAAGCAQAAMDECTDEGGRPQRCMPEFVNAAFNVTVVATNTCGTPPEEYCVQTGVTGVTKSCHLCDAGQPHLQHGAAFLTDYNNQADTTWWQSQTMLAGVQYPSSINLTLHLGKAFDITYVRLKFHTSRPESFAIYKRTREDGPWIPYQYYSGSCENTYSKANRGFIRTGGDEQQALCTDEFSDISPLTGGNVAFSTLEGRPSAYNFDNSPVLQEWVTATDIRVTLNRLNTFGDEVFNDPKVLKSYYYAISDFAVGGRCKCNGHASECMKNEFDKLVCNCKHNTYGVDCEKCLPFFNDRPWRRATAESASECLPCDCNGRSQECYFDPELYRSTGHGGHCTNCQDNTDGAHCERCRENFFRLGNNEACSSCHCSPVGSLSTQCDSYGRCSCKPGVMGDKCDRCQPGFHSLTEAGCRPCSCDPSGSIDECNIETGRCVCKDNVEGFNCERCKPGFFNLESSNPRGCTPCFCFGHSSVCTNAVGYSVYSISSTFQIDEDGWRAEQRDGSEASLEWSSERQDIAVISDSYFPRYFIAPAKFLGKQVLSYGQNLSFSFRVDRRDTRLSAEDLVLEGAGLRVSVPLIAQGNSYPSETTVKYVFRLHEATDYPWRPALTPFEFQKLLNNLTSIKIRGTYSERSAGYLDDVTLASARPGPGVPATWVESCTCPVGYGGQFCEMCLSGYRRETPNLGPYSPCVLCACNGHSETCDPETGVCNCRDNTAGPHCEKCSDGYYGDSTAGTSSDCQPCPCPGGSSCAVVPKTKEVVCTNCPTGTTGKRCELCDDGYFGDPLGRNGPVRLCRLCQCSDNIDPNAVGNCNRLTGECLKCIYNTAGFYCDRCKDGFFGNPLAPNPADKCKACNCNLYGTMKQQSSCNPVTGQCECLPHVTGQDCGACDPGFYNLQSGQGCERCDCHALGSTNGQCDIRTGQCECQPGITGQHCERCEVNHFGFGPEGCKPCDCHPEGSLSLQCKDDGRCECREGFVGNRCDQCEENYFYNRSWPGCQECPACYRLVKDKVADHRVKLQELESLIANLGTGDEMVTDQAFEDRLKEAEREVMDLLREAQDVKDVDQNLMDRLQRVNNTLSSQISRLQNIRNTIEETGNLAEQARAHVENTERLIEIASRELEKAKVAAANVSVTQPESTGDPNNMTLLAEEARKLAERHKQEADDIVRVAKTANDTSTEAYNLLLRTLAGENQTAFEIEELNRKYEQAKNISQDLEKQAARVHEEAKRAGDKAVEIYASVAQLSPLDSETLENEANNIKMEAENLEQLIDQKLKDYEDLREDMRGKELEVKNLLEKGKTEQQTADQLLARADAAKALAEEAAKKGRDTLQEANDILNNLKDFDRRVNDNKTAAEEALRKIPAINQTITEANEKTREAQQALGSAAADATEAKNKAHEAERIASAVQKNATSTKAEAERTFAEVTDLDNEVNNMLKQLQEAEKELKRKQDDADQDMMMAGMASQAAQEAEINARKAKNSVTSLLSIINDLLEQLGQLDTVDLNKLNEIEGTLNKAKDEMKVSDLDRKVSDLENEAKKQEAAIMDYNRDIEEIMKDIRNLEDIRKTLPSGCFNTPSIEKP
UniProt P55268: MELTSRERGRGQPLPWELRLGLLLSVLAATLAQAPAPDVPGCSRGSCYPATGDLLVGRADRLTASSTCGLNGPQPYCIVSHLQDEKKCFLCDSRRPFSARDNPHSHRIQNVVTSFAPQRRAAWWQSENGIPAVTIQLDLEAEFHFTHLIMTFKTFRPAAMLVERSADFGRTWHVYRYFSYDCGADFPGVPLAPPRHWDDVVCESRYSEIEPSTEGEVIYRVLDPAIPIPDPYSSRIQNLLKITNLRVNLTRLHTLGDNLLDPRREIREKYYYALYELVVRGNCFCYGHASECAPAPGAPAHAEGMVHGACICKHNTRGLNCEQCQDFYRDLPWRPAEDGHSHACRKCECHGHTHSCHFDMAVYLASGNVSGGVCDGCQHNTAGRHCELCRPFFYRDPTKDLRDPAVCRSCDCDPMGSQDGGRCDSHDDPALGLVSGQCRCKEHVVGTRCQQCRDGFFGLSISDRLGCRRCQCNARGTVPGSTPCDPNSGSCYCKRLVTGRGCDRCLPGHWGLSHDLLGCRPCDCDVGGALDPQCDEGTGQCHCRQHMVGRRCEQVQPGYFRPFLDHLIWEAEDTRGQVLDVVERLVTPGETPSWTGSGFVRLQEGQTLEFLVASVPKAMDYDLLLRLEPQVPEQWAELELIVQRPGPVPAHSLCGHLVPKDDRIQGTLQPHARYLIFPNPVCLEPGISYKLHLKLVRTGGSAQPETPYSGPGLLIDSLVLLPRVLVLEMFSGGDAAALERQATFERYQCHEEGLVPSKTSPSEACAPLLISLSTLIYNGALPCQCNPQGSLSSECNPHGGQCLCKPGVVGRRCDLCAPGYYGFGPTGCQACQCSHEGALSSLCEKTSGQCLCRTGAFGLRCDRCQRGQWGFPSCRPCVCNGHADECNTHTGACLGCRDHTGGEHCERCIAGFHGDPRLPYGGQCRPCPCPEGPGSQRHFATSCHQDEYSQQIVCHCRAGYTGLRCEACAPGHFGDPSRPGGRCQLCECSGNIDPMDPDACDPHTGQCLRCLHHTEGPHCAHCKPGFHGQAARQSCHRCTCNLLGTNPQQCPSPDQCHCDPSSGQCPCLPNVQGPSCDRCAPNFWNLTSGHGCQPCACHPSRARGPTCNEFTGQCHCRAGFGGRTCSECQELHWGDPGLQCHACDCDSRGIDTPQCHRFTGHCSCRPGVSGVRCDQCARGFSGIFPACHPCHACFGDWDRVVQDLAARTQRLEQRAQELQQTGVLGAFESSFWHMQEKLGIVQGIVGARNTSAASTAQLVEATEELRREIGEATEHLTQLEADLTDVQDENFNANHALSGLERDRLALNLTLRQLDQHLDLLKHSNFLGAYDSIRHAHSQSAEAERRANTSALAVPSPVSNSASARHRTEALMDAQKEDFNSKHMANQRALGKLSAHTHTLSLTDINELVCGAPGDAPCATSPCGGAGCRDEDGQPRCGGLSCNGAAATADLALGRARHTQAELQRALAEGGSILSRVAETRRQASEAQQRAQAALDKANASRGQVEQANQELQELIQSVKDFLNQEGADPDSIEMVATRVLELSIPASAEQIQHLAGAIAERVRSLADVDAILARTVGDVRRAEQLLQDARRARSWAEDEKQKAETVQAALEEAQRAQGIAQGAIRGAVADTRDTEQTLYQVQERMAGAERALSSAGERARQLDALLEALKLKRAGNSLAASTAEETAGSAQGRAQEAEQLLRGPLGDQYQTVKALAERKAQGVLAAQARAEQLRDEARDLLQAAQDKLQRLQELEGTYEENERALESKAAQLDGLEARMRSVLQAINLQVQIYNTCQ

Tests used:
laminin-221 = laminin-221 (UniProt P24043); test: ELISA; plates coated with 10 μg/mL laminin isoform; 1 μg/mL GF for 60 min at RT in the absence or presence of 10 μM heparin; bound GF detected with an antibody for each GF; both purified
[1] = biological target: recombinant human laminin-411 (human) (UniProt Q16363+P07942+P11047); test: as above
[2] = biological target: recombinant human laminin-421 (human) (UniProt Q16363+P55268+P11047); test: as above
[3] = biological target: laminin peptide LAMA4_(1408–1434) (human) (UniProt Q16363); test: ELISA; plates coated with laminin peptide (10 µg/mL by the legend, 1 μg/mL by the methods); 1 μg/mL GF added; bound GF detected with an antibody for each GF; BSA-coated wells as control; both purified
[4] = biological target: laminin peptide LAMA4_(1521–1543) (human) (UniProt Q16363); test: as above
[5] = biological target: T1, laminin peptide LAMA5_(3312–3325) (human) (UniProt O15230); test: as above
T1 sequence (peptide): ARKASRRSRQPARH

[6] = biological target: T2, laminin peptide LAMA3_(2932–2951) (human) (UniProt Q16787); test: ELISA; plates coated with laminin peptide (10 µg/mL by the legend, 1 μg/mL by the methods); 1 μg/mL His-tagged syndecan added; detected with anti-histidine tag antibody; BSA-coated wells as control; both purified
T2 sequence (peptide): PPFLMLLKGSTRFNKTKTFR

[7] = biological target: T3, laminin peptide LAMA3_(3031–3043) (human) (UniProt Q16787); test: as above
T3 sequence (peptide): KNSFMALYLSKGR

[8] = biological target: laminin peptide LAMA4_(1408–1434) (human) (UniProt Q16363); test: as above
[9] = biological target: laminin peptide LAMA4_(1521–1543) (human) (UniProt Q16363); test: as above
[10] = biological target: T1, laminin peptide LAMA5_(3312–3325) (human); test: as above
[11] = biological target: T4, laminin peptide LAMA5_(3539–3550) (human) (UniProt O15230); test: as above
T4 sequence (peptide): TLPDVGLELEVR

[12] = biological target: T5, laminin alpha 5 LG domain recombinant protein LAMA5_(3026–3482) (human) (UniProt O15230); test: ELISA; plates coated with 1 μg/mL recombinant laminin LG domain; 1 μg/mL GF added; bound GF detected with an antibody for each GF; BSA-coated wells as control; both purified
T5 sequence: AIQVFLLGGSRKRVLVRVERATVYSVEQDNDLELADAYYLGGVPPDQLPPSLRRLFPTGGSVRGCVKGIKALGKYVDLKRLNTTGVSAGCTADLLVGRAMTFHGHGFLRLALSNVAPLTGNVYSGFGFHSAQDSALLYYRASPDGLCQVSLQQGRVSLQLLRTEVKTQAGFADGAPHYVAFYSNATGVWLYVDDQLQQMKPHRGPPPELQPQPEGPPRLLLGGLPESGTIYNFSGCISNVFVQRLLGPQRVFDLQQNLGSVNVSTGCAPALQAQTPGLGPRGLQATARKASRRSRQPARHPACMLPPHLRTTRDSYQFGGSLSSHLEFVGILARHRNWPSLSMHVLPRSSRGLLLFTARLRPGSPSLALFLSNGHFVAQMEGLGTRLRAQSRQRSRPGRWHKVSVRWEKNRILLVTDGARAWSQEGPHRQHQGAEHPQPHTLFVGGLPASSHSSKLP

[13] = biological target: T6, recombinant laminin LAMA3_(2928–3150) protein (human) (UniProt Q16787); test: as above
T6 sequence: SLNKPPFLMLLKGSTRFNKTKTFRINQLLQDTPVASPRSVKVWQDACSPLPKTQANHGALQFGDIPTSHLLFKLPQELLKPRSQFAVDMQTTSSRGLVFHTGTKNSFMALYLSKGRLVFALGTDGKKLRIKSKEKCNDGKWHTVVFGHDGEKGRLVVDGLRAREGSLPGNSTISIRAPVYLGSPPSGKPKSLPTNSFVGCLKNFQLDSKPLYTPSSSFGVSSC

[14] = biological target: T2, laminin peptide LAMA3_(2932–2951) (human); test: ELISA; plates coated with laminin peptide (10 µg/mL by the legend, 1 μg/mL by the methods); 1 μg/mL GF added; bound GF detected with an antibody for each GF; BSA-coated wells as control; both purified
[15] = biological target: T3, laminin peptide LAMA3_(3031–3043) (human); test: as above
[16] = biological target: T7, laminin peptide LAMA3_(3043–3067) (human) (UniProt Q16787); test: as above
T7 sequence (peptide): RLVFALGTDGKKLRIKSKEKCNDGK

[17] = biological target: T8, laminin peptide LAMA5_(3300–3330) (human) (UniProt O15230); test: as above
T8 sequence (peptide): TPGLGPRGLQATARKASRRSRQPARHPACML

[18] = biological target: T9, laminin peptide LAMA5_(3417–3436) (human) (UniProt O15230); test: as above
T9 sequence (peptide): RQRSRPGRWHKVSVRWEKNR

[19] = biological target: T4, laminin peptide LAMA5_(3539–3550) (human); test: as above

Binder	binding (laminin-221)	binding [1]	binding [2]	binding [3]	binding [4]	binding [5]	binding [6]	binding [7]	binding [8]	binding [9]	binding [10]	binding [11]	binding [12]	binding [13]	binding [14]	binding [15]	binding [16]	binding [17]	binding [18]	binding [19]
recombinant human syndecan-1 (receptor, UniProt P18827 23-254) QIVATNLPPEDQDGSGDDSDNFSGSGAGALQDITLSQQTPSTWKDTQLLTAIPTSPEPTGLEATAASTSTLPAGEGPKEGEAVVLPEVEPGLTAREQEATPRPRETTQLPTTHLASTTTATTAQEPATSHPHRDMQPGHHETSTPAGPSQADLHTPHTEDGGPSATERAAEDGASSQLPAAEGSGEQDFTFETSGENTAVVAVEPDRRNQSPVDQGATGASQGLLDRKEVLG							binds weakly	binds weakly	binds	binds	binds weakly	no binding (tested: 1 μg/mL)								
recombinant human syndecan-4 (receptor, UniProt P31431 19-145) ESIRETEVIDPQDLLEGRYFSGALPDDEDVVGPGQESDDFELSGSGDLDDLEDSMIGPEVVHPLVPLDNHIPERAGSGSQVPTEPKKLEENEVIPKRISPVEESEDVSNKVSMSSTVQGSNIFERTE							binds weakly	binds weakly	binds	binds	binds weakly	no binding (tested: 1 μg/mL)								

More lines, now with the values ahead:

binding (laminin-221)	binding [1]	binding [2]	binding [3]	binding [4]	binding [5]	binding [6]	binding [7]	binding [8]	binding [9]	binding [10]	binding [11]	binding [12]	binding [13]	binding [14]	binding [15]	binding [16]	binding [17]	binding [18]	binding [19]	Binder
binds	binds	binds	binds	binds	no binding (tested: 1 μg/mL)															placental growth factor (PlGF)-2 (ligand, UniProt P49763-3 19-170) LPAVPPQQWALSAGNGSSEVEVVPFQEVWGRSYCRALERLVDVVSEYPSEVEHMFSPSCVSLLRCTGCCGDENLHCVPVETANVTMQLLKIRSGDRPSYVELTFSQHVRCECRPLREKMKPERRRPKGRGKRRREKQRPTDCHLCGDAVPRR
			no binding (tested: 1 μg/mL)	no binding (tested: 1 μg/mL)	no binding (tested: 1 μg/mL)							no binding (tested: 1 μg/mL)	no binding (tested: 1 μg/mL)	no binding (tested: 1 μg/mL)	no binding (tested: 1 μg/mL)	no binding (tested: 1 μg/mL)	no binding (tested: 1 μg/mL)	no binding (tested: 1 μg/mL)	no binding (tested: 1 μg/mL)	PlGF-1 (ligand, UniProt P49763-2 19-149) LPAVPPQQWALSAGNGSSEVEVVPFQEVWGRSYCRALERLVDVVSEYPSEVEHMFSPSCVSLLRCTGCCGDENLHCVPVETANVTMQLLKIRSGDRPSYVELTFSQHVRCECRPLREKMKPERCGDAVPRR
